Experiment [1] deals with human respiratory syncytial virus A2, RSV-A2.
The next experiment deals with HEK293-ISRE-Luc cells. The class given is cell-based. The note with it: IL29 control EC50 (0-point)/IL29 mutant EC50; IL29 control = 100%. An excerpt: The reporter gene method refers to ligating the promoter of interferon-stimulated response element (ISRE) to alkaline phosphatase cDNA, and transfecting them into HEK293 cells, and evaluating IL29 activity by measuring alkaline phosphatase in supernatant of HEK293 cells after IL29 stimulation (LaFleur D W, Nardelli B, Tsareva T Et al. Interferon-kappa, a novel type I interferon expressed in human keratinocytes. [J]. J. Biol. Chem., 2001, 276:39765-71).
HEK293-ISRE-Luc cells (purchased from National institutes for Food and Drug Control) were allowed to grow adherently in complete culture medium. The cells were passaged at a ratio of 1:4, 2-3 times per week, growing in complete culture medium. The cultured cells were taken to discard the culture medium, and the cells were washed once with PBS and then digested and collected; and the cell suspension containing 3.5×10^5 to 4.5×10^5 cells per 1 ml was prepared with assay culture medium (BIBCO).

Marks after values point to notes of the source that are not given here.

`NC(=O)c1ncn([C@@H]2O[C@H](CO)[C@@H](O)[C@H]2O)n1` [ribavirin]: in experiment [1] (Group 2: 50 mg/kg, first dose 1 h before inoculation), the “Difference between the mean values (compared with the vehicle group)” value is 1.479**. The “RSV titer in lung tissue log10 (pfu/g lung) (Mean ± SEM)” value in experiment [1] (mouse, in vivo, 50 mg/kg) is 2.376 ± 0.091 (N = 4) log10 (pfu/g lung). Further, the “RSV replication in mice (in words)” value in experiment [1] (ribavirin 1 h prior to infection, IL29 mutant 1 h prior, 1 h post and 24 h post virus infection) is given as “significantly inhibits”.

B1: IL29 control: IL29 wild-type protein, amino acid sequence SEQ ID NO: 1 with an additional M amino acid at the N-terminal (protein)
chain: KPTTTGKGCHIGRFKSLSPQELASFKKARDALEESLKLKNWSCSSPVFPGNWDLRLLQVRERPVALEAELALTLKVLEAAAGPALEDVLDQPLHTLHHILSQLQACIQPQPTAGPRPRGRLHHWLHRLQEAPKKESAGCLEASVTFNLFRLLTRDLKYVADGNLCLRTSTHPEST
modifications: additional N-terminal Met
With B1, in the experiment with HEK293-ISRE-Luc cells, the “Relative biological activity (%)” value was 100%.

B2: IL29CS (protein)
chain: MKPTTTGKGCHIGRFKSLSPQELASFKKARDALEESLKLKNWSCSSPVFPGNWDLRLLQVRERPVALEAELALTLKVLEAAAGPALEDVLDQPLHTLHHILSQLQACIQPQPTAGPRPRGRLHHWLHRLQEAPKKESAGCLEASVTFNLFRLLTRDLKYVADGNLSLRTSTHPEST
On to B2, for which the “Relative biological activity (%)” value in the experiment with HEK293-ISRE-Luc cells was 103%.

The values above are taken from patent publication US12703728B2, “Interleukin 29 mutant protein” (priority 2020, dated 2026).
